# Measured values: the supplement of paper PMC8728848
# Some of the results follow.
# B1: GNL (Galanthus nivalis) (protein)
# chain: MGHHHHHHHHYGTLENGHWLMVGMSIFSKDRTVELRMQDDGKLAIYYNDHCAWQSTAQQVNNAKGAVMQGDGNFCIYDKNGKATWHTNTAAPSGDSHTFVSVQDDGNLVLYKNNGATPIWSSKSNK
# How the values were obtained:
# Assay in all cases: glycan array binding signal (z-score within array); higher = stronger binding
# Conditions in all cases: glycan notation: IUPAC condensed, linker removed
# Gal(b1-2)Gal = molecular target: Gal(b1-2)Gal
# Outline: (§1)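 From the Consortium for Functional Glycomics database, 3228 arrays were curated, keeping only those whose protein sequence was available. Binding is given as a within-array Z-score averaged across arrays sharing a protein sequence and across linkers. Negative Z-scores can be read as non-binding.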
# Gal(b1-3)Gal = molecular target: Gal(b1-3)Gal
# Outline: as §1
# Gal(b1-3)Gal(b1-4)GlcNAc = molecular target: Gal(b1-3)Gal(b1-4)GlcNAc
# Outline: as §1
# Gal(b1-3)GalNAc = molecular target: Gal(b1-3)GalNAc
# Outline: as §1
# [1] = molecular target: Gal(b1-3)GalNAc(a1-3)[Fuc(a1-2)]Gal(b1-4)Glc
# Outline: as §1
# [2] = molecular target: Gal(b1-3)GalNAc(a1-3)[Fuc(a1-2)]Gal(b1-4)GlcNAc
# Outline: as §1
# Gal(b1-3)GalNAc(b1-3)Gal = molecular target: Gal(b1-3)GalNAc(b1-3)Gal
# Outline: as §1
# [3] = molecular target: Gal(b1-3)GalNAc(b1-3)Gal(a1-4)Gal(b1-4)Glc
# Outline: as §1
# [4] = molecular target: Gal(b1-3)GalNAc(b1-4)Gal(b1-4)Glc
# Outline: as §1
# [5] = molecular target: Gal(b1-3)GalNAc(b1-4)[Neu5Ac(a2-3)]Gal(b1-4)Glc
# Outline: as §1
# Gal(b1-3)GlcNAc = molecular target: Gal(b1-3)GlcNAc
# Outline: as §1
# [6] = molecular target: Gal(b1-3)GlcNAc(a1-3)Gal(b1-4)GlcNAc
# Outline: as §1
# [7] = molecular target: Gal(b1-3)GlcNAc(a1-6)Gal(b1-4)GlcNAc
# Outline: as §1
# Gal(b1-3)GlcNAc(b1-2)Man = molecular target: Gal(b1-3)GlcNAc(b1-2)Man
# Outline: as §1
# [8] = molecular target: Gal(b1-3)GlcNAc(b1-2)Man(a1-3)[Gal(b1-3)GlcNAc(b1-2)Man(a1-6)]Man(b1-4)GlcNAc(b1-4)GlcNAc
# Outline: as §1
# [9] = molecular target: Gal(b1-3)GlcNAc(b1-2)Man(a1-3)[Gal(b1-3)GlcNAc(b1-2)Man(a1-6)]Man(b1-4)GlcNAc(b1-4)[Fuc(a1-6)]GlcNAc
# Outline: as §1
# [10] = molecular target: Gal(b1-3)GlcNAc(b1-2)Man(a1-3)[GlcNAc(b1-4)][Gal(b1-3)GlcNAc(b1-2)Man(a1-6)]Man(b1-4)GlcNAc(b1-4)GlcNAc
# Outline: as §1
# [11] = molecular target: Gal(b1-3)GlcNAc(b1-2)[Gal(b1-3)GlcNAc(b1-6)]Man(a1-6)[Gal(b1-3)GlcNAc(b1-2)Man(a1-3)]Man(b1-4)GlcNAc(b1-4)GlcNAc
# Outline: as §1
# [12] = molecular target: Gal(b1-3)GlcNAc(b1-3)Gal(b1-3)GlcNAc
# Outline: as §1
# [13] = molecular target: Gal(b1-3)GlcNAc(b1-3)Gal(b1-4)Glc
# Outline: as §1
# [14] = molecular target: Gal(b1-3)GlcNAc(b1-3)Gal(b1-4)GlcNAc
# Outline: as §1
# [15] = molecular target: Gal(b1-3)GlcNAc(b1-3)Gal(b1-4)GlcNAc(b1-2)Man(a1-3)[Gal(b1-3)GlcNAc(b1-3)Gal(b1-4)GlcNAc(b1-2)Man(a1-6)]Man(b1-4)GlcNAc(b1-4)GlcNAc
# Outline: as §1
# [16] = molecular target: Gal(b1-3)GlcNAc(b1-3)Gal(b1-4)GlcNAc(b1-2)[Gal(b1-3)GlcNAc(b1-3)Gal(b1-4)GlcNAc(b1-6)]Man(a1-6)[Gal(b1-3)GlcNAc(b1-3)Gal(b1-4)GlcNAc(b1-2)Man(a1-3)]Man(b1-4)GlcNAc(b1-4)[Fuc(a1-6)]GlcNAc
# Outline: as §1
# [17] = molecular target: Gal(b1-3)GlcNAc(b1-3)Gal(b1-4)GlcNAc(b1-3)Gal(b1-4)GlcNAc(b1-2)[Gal(b1-3)GlcNAc(b1-3)Gal(b1-4)GlcNAc(b1-3)Gal(b1-4)GlcNAc(b1-6)]Man(a1-6)[Gal(b1-3)GlcNAc(b1-3)Gal(b1-4)GlcNAc(b1-3)Gal(b1-4)GlcNAc(b1-2)Man(a1-3)]Man(b1-4)GlcNAc(b1-4)[Fuc(a1-6)]GlcNAc
# Outline: as §1
# [18] = molecular target: Gal(b1-3)GlcNAc(b1-3)Gal(b1-4)GlcNAc(b1-6)[Gal(b1-3)GlcNAc(b1-3)]Gal(b1-4)Glc
# Outline: as §1
# [19] = molecular target: Gal(b1-3)GlcNAc(b1-3)Gal(b1-4)[Fuc(a1-3)]GlcNAc
# Outline: as §1
# [20] = molecular target: Gal(b1-3)GlcNAc(b1-3)Gal(b1-4)[Fuc(a1-3)]GlcNAc(b1-6)[Gal(b1-3)GlcNAc(b1-3)]Gal(b1-4)Glc
# Outline: as §1
# [21] = molecular target: Gal(b1-3)GlcNAc(b1-3)GalNAc
# Outline: as §1
# [22] = molecular target: Gal(b1-3)GlcNAc(b1-6)Gal(b1-4)GlcNAc
# Outline: as §1
# [23] = molecular target: Gal(b1-3)GlcNAc(b1-6)GalNAc
# Outline: as §1
# [24] = molecular target: Gal(b1-3)GlcNAc(b1-6)[Gal(b1-3)]GalNAc
# Outline: as §1
# Gal(b1-3)GlcNAc6S = molecular target: Gal(b1-3)GlcNAc6S
# Outline: as §1
# [25] = molecular target: Gal(b1-3)[Fuc(a1-4)]GlcNAc
# Outline: as §1
# [26] = molecular target: Gal(b1-3)[Fuc(a1-4)]GlcNAc(b1-2)Man
# Outline: as §1
# [27] = molecular target: Gal(b1-3)[Fuc(a1-4)]GlcNAc(b1-2)Man(a1-3)[Gal(b1-3)[Fuc(a1-4)]GlcNAc(b1-2)Man(a1-6)]Man(b1-4)GlcNAc(b1-4)[Fuc(a1-6)]GlcNAc
# Outline: as §1
# [28] = molecular target: Gal(b1-3)[Fuc(a1-4)]GlcNAc(b1-3)Gal(b1-3)[Fuc(a1-4)]GlcNAc
# Outline: as §1
# [29] = molecular target: Gal(b1-3)[Fuc(a1-4)]GlcNAc(b1-3)Gal(b1-4)[Fuc(a1-3)]GlcNAc
# Outline: as §1
# [30] = molecular target: Gal(b1-3)[Fuc(a1-4)]GlcNAc(b1-6)GalNAc
# Outline: as §1
# [31] = molecular target: Gal(b1-3)[GlcNAc(b1-6)]GalNAc
# Outline: as §1
# [32] = molecular target: Gal(b1-3)[Neu5Ac(a2-6)]GalNAc
# Outline: as §1
# [33] = molecular target: Gal(b1-3)[Neu5Ac(a2-6)]GlcNAc(b1-4)Gal(b1-4)Glc
# Outline: as §1
# [34] = molecular target: Gal(b1-3)[Neu5Ac(b2-6)]GalNAc
# Outline: as §1
# Gal(b1-4)Gal = molecular target: Gal(b1-4)Gal
# Outline: as §1
# [35] = molecular target: Gal(b1-4)GalNAc(a1-3)[Fuc(a1-2)]Gal(b1-4)GlcNAc
# Outline: as §1
# [36] = molecular target: Gal(b1-4)GalNAc(b1-3)[Fuc(a1-2)]Gal(b1-4)GlcNAc
# Outline: as §1
binder,measurement,setting,value
B1,glycan array binding signal (z-score),Gal(b1-2)Gal,-0.164
same,glycan array binding signal (z-score),Gal(b1-3)Gal,-0.197
same,glycan array binding signal (z-score),Gal(b1-3)Gal(b1-4)GlcNAc,-0.192
same,glycan array binding signal (z-score),Gal(b1-3)GalNAc,-0.233
same,glycan array binding signal (z-score),[1],-0.26
same,glycan array binding signal (z-score),[2],-0.284
same,glycan array binding signal (z-score),Gal(b1-3)GalNAc(b1-3)Gal,-0.22
same,glycan array binding signal (z-score),[3],-0.229
same,glycan array binding signal (z-score),[4],-0.061
same,glycan array binding signal (z-score),[5],-0.22
same,glycan array binding signal (z-score),Gal(b1-3)GlcNAc,-0.255
same,glycan array binding signal (z-score),[6],-0.174
same,glycan array binding signal (z-score),[7],-0.198
same,glycan array binding signal (z-score),Gal(b1-3)GlcNAc(b1-2)Man,-0.16
same,glycan array binding signal (z-score),[8],4.54
same,glycan array binding signal (z-score),[9],0.539
same,glycan array binding signal (z-score),[10],-0.125
same,glycan array binding signal (z-score),[11],-0.257
same,glycan array binding signal (z-score),[12],-0.228
same,glycan array binding signal (z-score),[13],-0.244
same,glycan array binding signal (z-score),[14],-0.228
same,glycan array binding signal (z-score),[15],0.126
same,glycan array binding signal (z-score),[16],-0.017
same,glycan array binding signal (z-score),[17],-0.118
same,glycan array binding signal (z-score),[18],-0.213
same,glycan array binding signal (z-score),[19],-0.273
same,glycan array binding signal (z-score),[20],-0.163
same,glycan array binding signal (z-score),[21],-0.251
same,glycan array binding signal (z-score),[22],-0.21
same,glycan array binding signal (z-score),[23],-0.317
same,glycan array binding signal (z-score),[24],-0.285
same,glycan array binding signal (z-score),Gal(b1-3)GlcNAc6S,-0.24
same,glycan array binding signal (z-score),[25],-0.161
same,glycan array binding signal (z-score),[26],-0.181
same,glycan array binding signal (z-score),[27],-0.124
same,glycan array binding signal (z-score),[28],-0.232
same,glycan array binding signal (z-score),[29],-0.299
same,glycan array binding signal (z-score),[30],-0.237
same,glycan array binding signal (z-score),[31],-0.208
same,glycan array binding signal (z-score),[32],-0.271
same,glycan array binding signal (z-score),[33],-0.245
same,glycan array binding signal (z-score),[34],-0.261
same,glycan array binding signal (z-score),Gal(b1-4)Gal,-0.149
same,glycan array binding signal (z-score),[35],-0.257
same,glycan array binding signal (z-score),[36],-0.215
